The list shows a part of the results.
target: T1, OsWOX13 (Oryza sativa, UniProt Q5QMM3 1-267); experiment: protein-binding microarray (RPBM); PBS, 2% BSA, 51.3 ng/ul salmon testes DNA, 50 uM zinc acetate, 200 nM TF, 25 C, 1 h; high values mean tight binding; settings: protein: recombinant; tags: N-terminal polyhistidine and DsRed monomer fusion (pET32a); label: CyDye5-dUTP incorporated in the synthesized complementary strand; 3' TTTTT single-stranded linker to array surface; dsDNA, one strand shown
T1 sequence: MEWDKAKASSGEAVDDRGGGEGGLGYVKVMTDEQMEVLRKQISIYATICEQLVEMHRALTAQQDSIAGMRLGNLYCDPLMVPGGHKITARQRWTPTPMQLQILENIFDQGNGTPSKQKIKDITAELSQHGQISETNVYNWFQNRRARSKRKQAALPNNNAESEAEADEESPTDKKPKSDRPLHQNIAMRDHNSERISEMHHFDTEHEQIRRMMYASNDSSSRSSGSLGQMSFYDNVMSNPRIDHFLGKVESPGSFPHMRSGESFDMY
Summary of the method: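 Transcription factors were each fused at the N-terminus to a polyhistidine tag plus DsRed and expressed in E. coli BL21-CodonPlus before Ni–NTA purification. Binding to a double-stranded custom Agilent array was carried out with 200 nM protein at 25 °C for 1 h in PBS, 2% BSA, salmon testes DNA and 50 µM zinc acetate. The binding signal is per-feature fluorescence intensity, in arbitrary units, on an Axon 4000B scanner.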

Going from “AATCTTTTAGCTATGCTAATTACCATGGGTAATTTGGTTACGGAGTCACCTAGTGCAG” to “CCTAAATGGTTTTGCTTGGACACTTCTGGTTACCTTGCATCGGAGTCACCTAGTGCAG”, the binding signal falls from 4980 fluorescence intensity (a.u.) to 3530 fluorescence intensity (a.u.).

Compared with “ATGCTTATTAACTAGTGTTTGATTTGTTGTTTTGTTTCAACGGAGTCACCTAGTGCAG”, “CTAAACTTGATTTAATGTATCATCCGGATCCAAAGCCTCGCGGAGTCACCTAGTGCAG” is higher in binding signal: 10300 fluorescence intensity (a.u.) for the first, 40500 fluorescence intensity (a.u.) for the second.

Going from “GGAGAAAAGAAATCAATCAGAAATGTAGAGGAGAAGGATGCGGAGTCACCTAGTGCAG” to “ATCCAAATTGGCTGTCGGGGCCAGATCACGCTGTGCGCTGCGGAGTCACCTAGTGCAG”, the binding signal rises from 7090 fluorescence intensity (a.u.) to 18600 fluorescence intensity (a.u.).

Compared with “GAAGATTTAATTGCAACAAATTTAATAGTGCAATCGGATCCGGAGTCACCTAGTGCAG”, “ATAGTTATAAGTTAATTTATTGGCTTATATGATTCCCTATCGGAGTCACCTAGTGCAG” is lower in binding signal: 40800 fluorescence intensity (a.u.) for the first, 5320 fluorescence intensity (a.u.) for the second.

Compared with “TTTTAGTAAAATTGATAAATATATGAATACATTTAGTTTGCGGAGTCACCTAGTGCAG”, “TTCATGCTGCTGGTGCCAATCAAAGGAGAGGACGACTTTTCGGAGTCACCTAGTGCAG” is lower in binding signal: 6470 fluorescence intensity (a.u.) for the first, 4430 fluorescence intensity (a.u.) for the second.

Compared with “AGAATAATTATTTAAGTTAAGGTGTGTCACACCCCAATCCCGGAGTCACCTAGTGCAG”, “GTAATAAACTAGTAATAATGATGCAATTGATCCCTCCTGCCGGAGTCACCTAGTGCAG” is lower in binding signal: 25100 fluorescence intensity (a.u.) for the first, 6310 fluorescence intensity (a.u.) for the second.

Going from “TAGTTTGTGATTGATTTGTCGACATCTGGAGGCGTCATGCCGGAGTCACCTAGTGCAG” to “AATCCAATCATATTATAGCTAGTATCCAATATTCTTGTTGCGGAGTCACCTAGTGCAG”, the binding signal falls from 58400 fluorescence intensity (a.u.) to 15700 fluorescence intensity (a.u.).

Going from “ACGTTTAATATTTATAATTAATTTTCAAACATATCTTTTACGGAGTCACCTAGTGCAG” to “TACGATAATTTTAATTATTAGGAGTAAGCTGAAACAAACACGGAGTCACCTAGTGCAG”, the binding signal rises from 5400 fluorescence intensity (a.u.) to 25200 fluorescence intensity (a.u.).

First: ACAATGTAGTTTTGATTAATCATATCGATCCTTGTTCCGACGGAGTCACCTAGTGCAG
Second: CATCCTGATTGATAAATTTGCTTCCAATAAACCAATAGTGCGGAGTCACCTAGTGCAG
The binding signal of the first is lower: 7360 fluorescence intensity (a.u.) for the first, 47600 fluorescence intensity (a.u.) for the second.

Going from “GACTGATCAAATCATGATGTTGCGATTCTCGGCGATATCGCGGAGTCACCTAGTGCAG” to “GTATATGATCTCAAATGATTGGATTAATAATAAATTAATCCGGAGTCACCTAGTGCAG”, the binding signal rises from 5130 fluorescence intensity (a.u.) to 28700 fluorescence intensity (a.u.).

Compared with “CCATTCAAATTTTAATTTCTTTTATTTCCTTTAGGCATAACGGAGTCACCTAGTGCAG”, “ATTAACTAATCACAACTATCTTGCATTAAATTTCATCTCCCGGAGTCACCTAGTGCAG” is higher in binding signal: 4190 fluorescence intensity (a.u.) for the first, 10700 fluorescence intensity (a.u.) for the second.

Going from “ACAATTAACTAATAATAATTAGTGATTACTTATCTTGATTCGGAGTCACCTAGTGCAG” to “AAAGGCCCATCCAATCAATAGTCCATAATCCCTCCCCAAGCGGAGTCACCTAGTGCAG”, the binding signal falls from 45300 fluorescence intensity (a.u.) to 4720 fluorescence intensity (a.u.).

First: TGTTGATTGCAGGATCAAATCAACTGGCACTCTCATACACCGGAGTCACCTAGTGCAG
Second: ACAGCCTGATTGCTTCTAAAGAACTTGTCAGAGTACTAGCCGGAGTCACCTAGTGCAG
The binding signal of the first is higher: 36800 fluorescence intensity (a.u.) for the first, 28400 fluorescence intensity (a.u.) for the second.

Compared with “CTGCGTCACGAAAGCGATTGATTGATCATCAGGTAATCCTCGGAGTCACCTAGTGCAG”, “AGATAATTAATGCAAGGGAAATATAGATGATGGTCCATATCGGAGTCACCTAGTGCAG” is higher in binding signal: 6520 fluorescence intensity (a.u.) for the first, 20300 fluorescence intensity (a.u.) for the second.

Compared with “ACTCTTAACCATCAGAAATTTGAATGACTAACAACTACATCGGAGTCACCTAGTGCAG”, “TGAAACTACAATTAATTTTGATCGGAACGATAATTCAATACGGAGTCACCTAGTGCAG” is higher in binding signal: 4410 fluorescence intensity (a.u.) for the first, 10200 fluorescence intensity (a.u.) for the second.

Going from “GAGGAATAATTGTCGCTCGATTGCTTGCTTGGGTTGGGTTCGGAGTCACCTAGTGCAG” to “CTAAACCGCATAATAATTTACAGAAATGCCCCTCACCTCCCGGAGTCACCTAGTGCAG”, the binding signal rises from 10300 fluorescence intensity (a.u.) to 11300 fluorescence intensity (a.u.).

First: TTCTGTAAGTATTTACGCTTTATTTACATTTGGATATGTGCGGAGTCACCTAGTGCAG
Second: TCTAAATTTATTATAGTACTAGGATATGTCATCTGTTAGTCGGAGTCACCTAGTGCAG
The binding signal of the first is lower: 13400 fluorescence intensity (a.u.) for the first, 20800 fluorescence intensity (a.u.) for the second.

Going from “TTCTAATCAACATCAACTTCATAAAATTAACATTGCCAAGCGGAGTCACCTAGTGCAG” to “ATGATTAGAGAGAATGGGTTTAGTTATTTGTTGATCCACACGGAGTCACCTAGTGCAG”, the binding signal rises from 12100 fluorescence intensity (a.u.) to 29400 fluorescence intensity (a.u.).

Compared with “CCACGAGAAAATATATGTGATTGGGCCTTGCACATTACAGCGGAGTCACCTAGTGCAG”, “TAACCCAAATTTTGGACTAATTAAATCGTTGAGTCAACTACGGAGTCACCTAGTGCAG” is higher in binding signal: 10300 fluorescence intensity (a.u.) for the first, 13700 fluorescence intensity (a.u.) for the second.

First: AGCGTGGAAACTCATGATTGCACTTAAAATGGGACGGATGCGGAGTCACCTAGTGCAG
Second: ATTTTGATTTTGATTGGTGCAGCCCAAGAATCCCATGTTCCGGAGTCACCTAGTGCAG
The binding signal of the first is lower: 4400 fluorescence intensity (a.u.) for the first, 46600 fluorescence intensity (a.u.) for the second.

First: AAAGTTAATTTACATCTTCATAAAATGGCAAGTAAATTGGCGGAGTCACCTAGTGCAG
Second: AGGATGATTTAGAAACTCGACCACAAGAGGGACCTCGAGTCGGAGTCACCTAGTGCAG
The binding signal of the first is higher: 32500 fluorescence intensity (a.u.) for the first, 7010 fluorescence intensity (a.u.) for the second.
